The other results are listed elsewhere or left out.
Each sequence was assayed on PfSIP2 AP2 domain 1 (GST-tagged) (assay: gcPBM binding intensity (ln(normalized median fluorescence intensity)); higher = stronger DNA binding).
Outline: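 Each value is the highest Masliner-normalised natural-log median intensity across replicate spots of either orientation of a probe. The probes were primer-extended double-stranded 36-bp intergenic genomic sequences on an Agilent 4 × 180k array, alongside negative controls, exposed for 1 h to GST-tagged P. falciparum DNA-binding domains expressed in E. coli. Bound protein was picked up with Alexa488 anti-GST antibody and scanned at 488 nm.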

Sequence | gcPBM binding intensity (ln)
TTTTTTTCATATATATGTACATAATTATATATGCAT [XGTACX_site3257] | 7.12
TTTAAAAATATTTCACGTACGCATTTTAAAAAGTAT [XGTACX_site8026] | 6.92
TTAATTATATGGTAAACAAATAAATGTGAAAGGAAA [XGTACX_negctrl_site389] | 6.99
CGTGGGAGCAGACACACACACACACCCATATATATA [CACACA_site334] | 7.34
AATATGGGCATACATGTGCACTTTTTCCCGTGGTTT | 9.88
TTAATTAAATATAGGGGTACATATTATATATGTTTT [XGTACX_site3677] | 7.09
ACGAAAAGATATATATGTACATATATTAAAAAAAAA [XGTACX_site1517] | 7.01
TTATATGCATATTTTTGTACACAACATTGTTGTATA [XGTACX_site8707] | 7.06
AAGAAATTTATTTATTGTACAATATATAATTTGTTT [XGTACX_site2478] | 6.79
ATGTATATTTTTATGTGTACGTAATAAAACATAATA [XGTACX_site7777] | 7.68
TTATTTTTTTTTAGAGCACACATTTTTAATAAGGTA [CACACA_site2133] | 7.15
TATAAATTTGTTCAATGTACATGTAAAGATATAATC [XGTACX_site371] | 7.11
TGAAGCAAAAACAAAACACACATATAAATAAATAAA [CACACA_site3925] | 6.88
TTATTTTTTATAAAATGTACATATATTTTAAATATA [XGTACX_site4026] | 7.05
ACCAATCCAAAAGAATGTACCCATGTTTTAAAATAT [XGTACX_site2907] | 7.1
TTCGTATGCATGAAATGTACATGATATTATTATAAA [XGTACX_site4542] | 7.16
TTTTGTTAACATATAGAAAAGAACAAAGTTAAAAAG [XGTACX_negctrl_site462] | 7.51
GAAAAAAAAATACATACACACAATATATTTATTTAT [CACACA_site3124] | 6.87
TATTATATATAATATTGTACATTAAAATATTAAAGA [XGTACX_site3698] | 7.04
TTTATTTTAAAATATAGTACGCAAATAAAAATAAAT [XGTACX_site7783] | 7.33
GGAACGTTCATATTTCCACACACAAAAAATAAATAT [CACACA_site9101] | 7.08
ATATGTATTAAGTGTACACATATAATGGGTTTTCTT [CACACA_site5328] | 7.09
TATATACTATATATATGTACACAAAATTATTTTGAA [XGTACX_site8232] | 7.34

Sequence | gcPBM binding intensity (ln)
ATATGTAGTGTTATTTGTTCATTGTTTTAATTTTTA [CACACA_negctrl_site1394] | 6.91
TAATTATATAAATACACACACATACACCCAAATAAA [CACACA_site5819] | 7.41
AACATCAAAATATGCACACAAACAATTAGCGGTAGT [CACACA_site2521] | 8.16
GATTTACATTTTGATGAAAATAATAAAATGTGGAAA [TGCATGCA_negctrl_site409] | 6.95
ATATTTTATTTTTAAAGTACAAAAGAAAAGAATAAT [XGTACX_site8247] | 7.25
AAAAAAAAAGACAAAAGTACAAAGGTTCATAATTTA [XGTACX_site3978] | 6.89
CTTATATTTGGACACACACACAATAAAATGAAAAAA [CACACA_site6614] | 7.39
TACACAAGAAAATTCACACACACACCGATATATATA [CACACA_site6008] | 7.41
AAATCTTCATAATAAAGTACTTAACTCTTGGTGTTA [XGTACX_site6112] | 6.79
AATAAATGGAAAAGGTGTACACAAAAAAAAGGGAAA [XGTACX_site4956] | 7.15
AAAAAAAAAAAAAAAACATGCAGTTAGTGGTTTTTT [TGCATGCA_site243] | 7.51
GAAATGGGTAAACATACACACACACCGATATATATA [CACACA_site8610] | 7.48
TAACAATTATGCTGGTGTACGTTTGAAATTGGGTAT [XGTACX_site6846] | 7.49
AAAAATTTCTATTTTTGTACTTACTTTTTAGTAATA [XGTACX_site5236] | 6.9
AAAAAACAAAAAAATACACACATAAAAAGGTTTTAG [CACACA_site3584] | 6.93
AAATATGTCAAATATACACACATAATAAATATAATA [CACACA_site2310] | 7.12
TTATAAGATGATTATAAAATCAAATTCATTCTTTTA [CACACA_negctrl_site1338] | 6.49
TAAACATAACAAAGGAGTACAAAACTTGATCAGTTC [XGTACX_site3114] | 6.74
TATGTATAAAAATAATGTACAAAATATATTATATGT [XGTACX_site2794] | 7.12
ATCTTAGTTGAAATATAGAATTTATAATAAAAGTTA [GTGCAC_negctrl_site122] | 6.87
ATACTATAATAATACACACTCATTAGATATATAAAG [CACACA_site7787] | 7.13
TGTACAAATATGTACACACACACATATTTATTTATA [CACACA_site6419] | 7.13
ATAGAATATTTTATTACACACAGAATAATAAAAAAT [CACACA_site6190] | 6.79

Sequence | gcPBM binding intensity (ln)
CTAAAAGGATGATGAATGCACTATTATTTATATGGA | 8.41
TTATTTTTTTTAGCATATACAAATATATATATATAT [GTGCAC_negctrl_site4] | 9.34
AAGAATTATTTTTTATGTACTTATATGTCAATTTTC [XGTACX_site6676] | 6.99
TATATAATATATTTATGTACGTATTTAAAAATTTAT [XGTACX_site160] | 7.1
TGTATTTATTAATGTACACACATGCGTATGTTCGTT [CACACA_site5892] | 7.15
GAAGGAAATAAATCAACACACATATATTATATATAT [CACACA_site2188] | 7.8
TTGTGTGAGCAAGTAGTGCATAATATAAATAAAAAA [GTGCAC_site9802] | 9.49
TGAAATTTGTTATATGCATGTAAAATATTACGACGA [TGCATGCA_site201] | 7
CATAAATATTTGTGTTGTACAAATATATATATTTAT [XGTACX_site7363] | 6.99
AAAATTGAAGGTAGAAGTACATATTTATTTCAATAA [XGTACX_site8732] | 6.76
TTATGAATACTTCAAGTGCATTTATTTTATATGACA | 7.86
ATTGTGGATATTCTTACACACAAATTTATATATAAA [CACACA_site2601] | 6.79
ATATTCTAAATAAAGGGTACACAAAAATAATTAAAG [XGTACX_site5529] | 7.49
TATTTGTAATATTATACACACATTATGTATTACAAA [CACACA_site3386] | 7
TTTTGTATATTATATGTACACACAATAAGTTAATAT [CACACA_site8207] | 7.13
TATGAACTTTTGGGGGTGCCTTAAAATGTATATTCT | 8.27
ATATATATATAAAGCAGTACACACATTTATTTTAGA [XGTACX_site7226] | 8.8
TATCAAAGTAGAAGAGATCGATGTCATATTGTGATG [GTGCAC_negctrl_site42] | 7.05
TCCCAATTTATTATGTGTACTTATTATATACATATA [XGTACX_site4033] | 7.16
CACAGACACGGACACACACACATATATATATATATA [CACACA_site5248] | 9.5
ATAATATGAAGAAGCACACTCAATTAAATACAGATA [CACACA_site4690] | 6.84
ATACACACATATATGTGTACATATACATATATATAT [XGTACX_site6744] | 8.43
AACAAAATAGGGAACACACACATGTCGATATATAAA [CACACA_site7265] | 6.99

Sequence | gcPBM binding intensity (ln)
CAAAAGCGATACGGCACACATTTCCTGTTTAAATGA [CACACA_site5519] | 6.85
TTAATTTTTAGAAGAACACACACATATATATTATGA [CACACA_site7969] | 6.76
AAATTGATTATAAATTGTACAAGAACATACAACCTT [XGTACX_site5986] | 6.86
TCATATAGATTATACACACACATATATAGATATATA [CACACA_site6587] | 6.99
TTATATTTCAATTAAACATGCATTTTTGTGTAGCAC [TGCATGCA_site214] | 6.98
TTATATATTTTATTATTTATAATCTTTTTTTTATTT [CACACA_negctrl_site112] | 6.71
CATTTTTTAATAATAGCACACAGGACATACAAAACA [CACACA_site1245] | 7.37
ACAGTATCTGGTAGCTGTACGAGTCGTAGAGTGTAG [XGTACX_site2011] | 7.15
AAAATATAAAGTATTTGTACATAATATATTTTTAAA [XGTACX_site3494] | 6.81
AATATATAAATAAATATATAAATAAATAATTGAAGC [CACACA_negctrl_site348] | 7.04
TTCATTAATGTGTAATGTACTTGTAATATGGGATTA [XGTACX_site3903] | 7.06
TGTTCTCTTCTTTTTTATTTTCCAAAGTAATAAGTT [TGCATGCA_negctrl_site424] | 7.19
TATATATATTTATATGCATGTAATATATTTGTATTG [TGCATGCA_site323] | 7.27
TAAATAAGTATTACTAGTACACACAAGTTGTTAATC [XGTACX_site7074] | 6.99
AATTATTTTATGAAAAGTACACATTGTTTTAATTCT [XGTACX_site4506] | 7.12
CATAAATCAGCCATAACACACATACATAAATACATA [CACACA_site4380] | 7.04
TTAATTATAATTATATGTACGAACTTTTTTTTTTTT [XGTACX_site6586] | 7.42
AGAAAAAAGAGGGATACACACAAACATATATATATA [CACACA_site5269] | 9.01
CACAAAAAGAAACACACACACATATATATATATATA [CACACA_site999] | 9.67
ATTCTAAATAATAAGAGTACAAATAATATGGAGAAG [XGTACX_site5209] | 7.42

Source: the supplement of paper PMC11417369
